Test results published in the supplement of paper PMC10369915.
This is one part of the list. Cut-off read from the data, not from the text of the source: active = 3.2 or more and inactive = the rest. Only a few entries rise above the background.

What was measured:
Assay in all cases: enrichment score (SH2-bound / input frequency) (ratio); bacterial display of known human phosphotyrosine sites (pTyr-Var adds point mutants) read by sequencing; higher = stronger binding; tyrosines were phosphorylated by kinases first
Conditions in all cases: peptide library: pTyr-Var
[1] = molecular target: SHP2 C-SH2 domain E139D
[2] = molecular target: SHP2 C-SH2 domain wild-type
[3] = molecular target: SHP2 N-SH2 domain L43F
[4] = molecular target: SHP2 N-SH2 domain T42A
[5] = molecular target: SHP2 N-SH2 domain T52S
[6] = molecular target: SHP2 N-SH2 domain wild-type

Measured: enrichment score
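Note: displayed peptides selected on beads carrying the immobilized SH2 domain, with library peptides lacking any tyrosine serving as negative controls.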

B1: HARS1_Y150 (peptide)
chain: TNIKRYHIAKV
inactive: [1] 0.868 | [2] 0.847 | [3] 0.915 | [4] 0.865 | [5] 1.1 | [6] 0.953

B2: H6PD_Y449_R453Q_YF (peptide)
chain: SDFFAYSPVQE
inactive: [1] 1.07 | [2] 1.3 | [3] 0.821 | [4] 0.897 | [5] 1.04 | [6] 0.791

B3: GSTP1_Y112 (peptide)
chain: LIYTNYEAGKD
inactive: [1] 1.12 | [2] 0.981 | [3] 0.898 | [4] 2.6 | [5] 0.989 | [6] 1.07

B4: HARS2_Y364_V368L (peptide)
chain: AAGGRYDGLLG
inactive: [1] 0.7 | [2] 0.682 | [3] 0.705 | [4] 0.477 | [5] 0.672 | [6] 0.716

B5: GYPC_Y126_K124E (peptide)
chain: SSREEYFIGGG
inactive: [1] 0.955 | [2] 0.974 | [3] 0.878 | [4] 0.757 | [5] 0.903 | [6] 1.01

B6: HARS1_Y156 (peptide)
chain: HIAKVYRRDNP
inactive: [1] 0.306 | [2] 0.415 | [3] 0.353 | [4] 0.331 | [5] 0.483 | [6] 0.334

B7: HARS1_Y150_V155G (peptide)
chain: TNIKRYHIAKG
inactive: [1] 0.904 | [2] 0.814 | [3] 0.881 | [4] 0.918 | [5] 0.935 | [6] 0.896

B8: H3-5_Y41_H39R (peptide)
chain: VKPRRYRPGTV
inactive: [1] 0.471 | [2] 0.274 | [3] 0.323 | [4] 0.228 | [5] 0.222 | [6] 0.265

B9: GSTP1_Y112_A114V (peptide)
chain: LIYTNYEVGKD
active: [4] 3.5
inactive: [1] 1.27 | [2] 1.21 | [3] 1.4 | [5] 1.34 | [6] 0.961

B10: GYPC_Y126 (peptide)
chain: SSRKEYFIGGG
inactive: [1] 1.24 | [2] 1.04 | [3] 0.923 | [4] 0.874 | [5] 0.653 | [6] 0.952

B11: HADHB_Y244_D242G (peptide)
chain: LEQGEYALRSH
inactive: [1] 0.658 | [2] 0.636 | [3] 0.63 | [4] 0.57 | [5] 0.587 | [6] 0.816

B12: HARS1_Y138_P134H (peptide)
chain: VHFARYLAMNK
inactive: [1] 0.714 | [2] 0.632 | [3] 0.64 | [4] 0.718 | [5] 0.761 | [6] 0.499

B13: GSTA1_Y147_G144R (peptide)
chain: SHRQDYLVGNK
inactive: [1] 0.749 | [2] 0.738 | [3] 0.761 | [4] 0.679 | [5] 0.659 | [6] 0.522

B14: HBA1_Y141_V136E (peptide)
chain: ELTSKYRGGGG
inactive: [1] 0.558 | [2] 0.548 | [3] 0.533 | [4] 0.579 | [5] 0.53 | [6] 0.734

B15: HBA1_Y141_L137R (peptide)
chain: VRTSKYRGGGG
inactive: [1] 0.355 | [2] 0.216 | [3] 0.263 | [4] 0.296 | [5] 0.321 | [6] 0.32

B16: GSTA3_Y74_I71L_YF (peptide)
chain: RALLNYIASKF
inactive: [1] 0.704 | [2] 0.81 | [3] 0.585 | [4] 0.73 | [5] 0.841 | [6] 0.886

B17: GUCY2C_Y839 (peptide)
chain: TTICKYSTPME
inactive: [1] 0.921 | [2] 1.13 | [3] 0.798 | [4] 0.65 | [5] 0.875 | [6] 0.793

B18: GSTP1_Y109_A114V (peptide)
chain: YISLIYTNYEV
active: [3] 4.13 | [4] 5.7 | [5] 4.96
inactive: [1] 2.69 | [2] 2.73 | [6] 2.52

B19: H6PD_Y449_YF (peptide)
chain: SDFFAYSPVRE
inactive: [1] 0.981 | [2] 0.93 | [3] 0.827 | [4] 0.609 | [5] 0.942 | [6] 0.757

B20: HAP1_Y440 (peptide)
chain: DLREKYMDCGG
inactive: [1] 0.774 | [2] 0.832 | [3] 0.602 | [4] 0.576 | [5] 0.668 | [6] 0.651

B21: HADHA_Y343_L342P (peptide)
chain: ALMGPYHGQVL
inactive: [1] 0.845 | [2] 0.887 | [3] 0.918 | [4] 0.832 | [5] 0.797 | [6] 0.871

B22: GTF2E2_Y137 (peptide)
chain: VIDGKYAFKPK
inactive: [1] 0.607 | [2] 0.74 | [3] 0.58 | [4] 0.593 | [5] 0.67 | [6] 0.891

B23: HARS2_Y151 (peptide)
chain: KKMKRYHVGKV
inactive: [1] 0.987 | [2] 0.777 | [3] 0.875 | [4] 0.852 | [5] 1.04 | [6] 0.942

B24: HADHB_Y244_R247H (peptide)
chain: LEQDEYALHSH
inactive: [1] 0.868 | [2] 0.821 | [3] 0.764 | [4] 0.713 | [5] 0.76 | [6] 1.05

B25: HAGH_Y61 (peptide)
chain: ALTDNYMYLVI
inactive: [1] 0.926 | [2] 0.82 | [3] 0.781 | [4] 0.686 | [5] 0.779 | [6] 1.01

B26: HBA1_Y141_L137P (peptide)
chain: VPTSKYRGGGG
inactive: [1] 0.48 | [2] 0.567 | [3] 0.391 | [4] 0.46 | [5] 0.498 | [6] 0.598

B27: HAGH_Y61_L64V (peptide)
chain: ALTDNYMYVVI
inactive: [1] 0.629 | [2] 0.736 | [3] 0.764 | [4] 0.626 | [5] 0.658 | [6] 1.06

B28: H6PD_Y449 (peptide)
chain: SDYYAYSPVRE
inactive: [1] 0.683 | [2] 1.37 | [3] 0.816 | [4] 0.762 | [5] 0.787 | [6] 0.746

B29: GUCY2C_Y681_T682I (peptide)
chain: RKETFYILSCR
inactive: [1] 0.464 | [2] 0.419 | [3] 0.52 | [4] 0.358 | [5] 0.541 | [6] 0.445

B30: GSTA3_Y74 (peptide)
chain: RAILNYIASKY
inactive: [1] 1.26 | [2] 1.32 | [3] 1.03 | [4] 1.11 | [5] 1.11 | [6] 1.23

B31: GUCY2D_Y656 (peptide)
chain: IKGIRYLHHRG
inactive: [1] 1.47 | [2] 0.976 | [3] 1.1 | [4] 1.11 | [5] 1.19 | [6] 1.46

B32: HBA1_Y141_R142H (peptide)
chain: VLTSKYHGGGG
inactive: [1] 0.642 | [2] 0.632 | [3] 0.706 | [4] 0.682 | [5] 0.681 | [6] 0.767

B33: GUCY2C_Y839_S840I (peptide)
chain: TTICKYITPME
inactive: [1] 0.99 | [2] 1.12 | [3] 1.17 | [4] 1.1 | [5] 0.785 | [6] 0.822

B34: GSTP1_Y112_YF (peptide)
chain: LIFTNYEAGKD
inactive: [1] 0.861 | [2] 1.26 | [3] 0.66 | [4] 1.02 | [5] 0.839 | [6] 1.12

B35: HADHA_Y239_A244V (peptide)
chain: ERTIEYLEEVV
inactive: [1] 0.796 | [2] 0.704 | [3] 0.968 | [4] 1.52 | [5] 0.716 | [6] 0.79

B36: HBA1_Y25 (peptide)
chain: AHAGEYGAEAL
inactive: [1] 0.577 | [2] 0.624 | [3] 0.555 | [4] 0.564 | [5] 0.568 | [6] 0.651

B37: HADHA_Y283_V282D (peptide)
chain: VRQQDYKKVEE
inactive: [1] 0.659 | [2] 0.395 | [3] 0.493 | [4] 0.529 | [5] 0.437 | [6] 0.56
